{"source": "paper PMC4336329", "about": "(PLoS ONE, 2015)", "note": "The campaign covered roughly 310,000 compounds. About 14,000 (4.5%) showed an effect of 50% or more. The effect is printed as a negative number. The list shows a part of the results.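 Also: peak tail current of the secondary pulse compared with the same well before compound.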"}
{"biological_target": "human ether-à-go-go-related gene (hERG) potassium channel (human, UniProt Q12809)", "sequence (Q12809 whole entry, looked up)": "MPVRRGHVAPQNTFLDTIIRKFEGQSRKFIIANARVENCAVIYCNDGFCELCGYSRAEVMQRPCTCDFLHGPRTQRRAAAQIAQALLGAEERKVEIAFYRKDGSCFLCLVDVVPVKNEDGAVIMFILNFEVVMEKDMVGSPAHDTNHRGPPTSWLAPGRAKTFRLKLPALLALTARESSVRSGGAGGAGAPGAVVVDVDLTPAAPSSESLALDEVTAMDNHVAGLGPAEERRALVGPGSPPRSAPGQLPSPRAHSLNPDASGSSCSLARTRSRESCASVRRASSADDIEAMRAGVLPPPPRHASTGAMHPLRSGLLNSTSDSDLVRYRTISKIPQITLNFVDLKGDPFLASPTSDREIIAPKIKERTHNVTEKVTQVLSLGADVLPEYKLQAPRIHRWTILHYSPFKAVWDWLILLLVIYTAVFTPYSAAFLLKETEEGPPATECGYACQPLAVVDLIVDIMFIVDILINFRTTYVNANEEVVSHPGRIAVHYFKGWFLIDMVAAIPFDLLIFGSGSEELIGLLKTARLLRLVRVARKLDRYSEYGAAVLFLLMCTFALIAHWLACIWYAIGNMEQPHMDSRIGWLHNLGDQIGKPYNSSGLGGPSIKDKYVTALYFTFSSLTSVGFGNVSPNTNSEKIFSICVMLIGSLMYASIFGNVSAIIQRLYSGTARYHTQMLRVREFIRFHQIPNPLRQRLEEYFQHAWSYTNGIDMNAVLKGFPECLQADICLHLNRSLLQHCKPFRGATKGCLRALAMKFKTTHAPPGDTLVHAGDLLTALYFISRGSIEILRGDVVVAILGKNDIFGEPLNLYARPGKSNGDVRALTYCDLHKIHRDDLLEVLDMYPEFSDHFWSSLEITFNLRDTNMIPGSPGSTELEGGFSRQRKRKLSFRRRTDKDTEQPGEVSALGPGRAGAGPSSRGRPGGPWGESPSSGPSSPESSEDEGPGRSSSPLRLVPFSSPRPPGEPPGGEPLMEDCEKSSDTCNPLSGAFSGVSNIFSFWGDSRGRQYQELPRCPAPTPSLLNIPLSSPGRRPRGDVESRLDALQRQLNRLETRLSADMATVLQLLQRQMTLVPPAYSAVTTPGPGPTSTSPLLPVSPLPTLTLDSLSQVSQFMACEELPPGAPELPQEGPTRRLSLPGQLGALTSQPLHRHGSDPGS", "assay": "primary screen, population patch clamp on CHO cells stably expressing hERG", "units": {"hERG current change (%, negative = inhibition) at 10uM": "%"}}
{"molecule": "Cc1cc(C)c2nc3sc(C(=O)N4CCOCC4)c(N)c3cc2c1", "hERG current change (%, negative = inhibition) at 10uM": -17.3}
{"molecule": "CCCC(NC(=O)Cc1c(C)c2c(cc(C)c3c(C)coc32)oc1=O)C(=O)O", "note": "(stereo not drawn)", "hERG current change (%, negative = inhibition) at 10uM": 11.8}
{"molecule": "COc1ccc(C2=NOC(Cn3nc(-c4ccccc4)cc3C(=O)O)C2)cc1", "note": "(stereo not drawn)", "hERG current change (%, negative = inhibition) at 10uM": 16.9}
{"molecule": "Cl.OC(CNCc1ccc(Cl)c(Cl)c1)c1ccccc1", "note": "(stereo not drawn)", "hERG current change (%, negative = inhibition) at 10uM": -4.57}
{"molecule": "O=C(CSc1nnc(Cc2ccccc2)c(=O)[nH]1)Nc1ccccc1", "hERG current change (%, negative = inhibition) at 10uM": -33.7}
{"molecule": "COc1ccc(OC)c(-n2c(Cn3c(-c4ccccn4)nc4ccccc43)n[nH]c2=S)c1", "hERG current change (%, negative = inhibition) at 10uM": -27.4}
{"molecule": "O=C1c2ccccc2C(=O)C1C1=Nc2ccccc2NC(c2ccccc2)C1", "note": "(stereo not drawn)", "hERG current change (%, negative = inhibition) at 10uM": 57.2}
{"molecule": "CC(CN1CCCC1)OC(=O)COc1ccccc1.Cl", "note": "(stereo not drawn)", "hERG current change (%, negative = inhibition) at 10uM": 4.51}
{"molecule": "COCCn1c(C)cc(C(=O)CSc2nc3ccccc3c(=O)n2C(C)COC)c1C", "note": "(stereo not drawn)", "hERG current change (%, negative = inhibition) at 10uM": -8.32}
{"molecule": "Cc1c(NC(=O)COC(=O)c2ccc(Br)o2)c(=O)n(-c2ccccc2)n1C", "hERG current change (%, negative = inhibition) at 10uM": 13.8}
{"molecule": "CCOc1cccc(-c2nnc3sc(COc4ccc(C)cc4)nn23)c1", "hERG current change (%, negative = inhibition) at 10uM": 2.31}
{"molecule": "CCOc1ccc(C(=O)N/N=C/c2cc([N+](=O)[O-])cs2)cc1", "hERG current change (%, negative = inhibition) at 10uM": -4.54}
{"molecule": "Cc1cc(C)c2c(c1)-c1cc(C)nn1C(c1cccnc1)N2", "note": "(stereo not drawn)", "hERG current change (%, negative = inhibition) at 10uM": -11.8}
{"molecule": "Cc1c(Cl)cccc1NC(=S)N1CCN(S(=O)(=O)c2cccs2)CC1", "hERG current change (%, negative = inhibition) at 10uM": -3.16}
{"molecule": "CCCc1cc(=O)n2nc(N3CCC(C(=O)Nc4c(F)c(F)c(F)c(F)c4F)CC3)sc2n1", "hERG current change (%, negative = inhibition) at 10uM": -25.2}
{"molecule": "O=C(CSc1nc2ccccc2c(=O)n1CCCO)NC1CC1", "hERG current change (%, negative = inhibition) at 10uM": -13.4}
{"molecule": "N#C/C(=C1/C(=O)Nc2ccc(Br)cc21)c1ccccn1", "hERG current change (%, negative = inhibition) at 10uM": 12.6}
{"molecule": "CCN1CCN(C(=O)CN(CC)S(=O)(=O)c2ccc3ccccc3c2)CC1", "hERG current change (%, negative = inhibition) at 10uM": -10.2}
{"molecule": "CCN(CC)CCNC(=O)C(=O)Nc1ccc2c(c1)N(S(=O)(=O)c1cccs1)CCC2", "hERG current change (%, negative = inhibition) at 10uM": -78.2}
{"molecule": "COc1cc([N+](=O)[O-])ccc1-c1ccc(/C=N/NC(N)=O)o1", "hERG current change (%, negative = inhibition) at 10uM": 15.7}
{"molecule": "CC(=O)Nc1c([N+](=O)[O-])cc2[nH]c(=O)[nH]c2c1[N+](=O)[O-]", "hERG current change (%, negative = inhibition) at 10uM": 13}
{"molecule": "Oc1ccccc1Nc1ccccn1", "hERG current change (%, negative = inhibition) at 10uM": 6.88}
{"molecule": "O=C(c1ccc(CS(=O)(=O)Cc2ccccc2)cc1)N1CCCCC1", "hERG current change (%, negative = inhibition) at 10uM": 34}
{"molecule": "CC1CCN(C(=O)c2ccc(NC(=O)CC3SC(N4CCCC4)=NC3=O)cc2)CC1", "note": "(stereo not drawn)", "hERG current change (%, negative = inhibition) at 10uM": -2.48}
{"molecule": "O=C(NCCCN1CCOCC1)c1onc(CSc2ccncc2)c1C(=O)NCCCN1CCOCC1", "hERG current change (%, negative = inhibition) at 10uM": -5.25}
{"molecule": "CCOC(=O)c1ccc(-n2c(C)nc3ccccc3c2=O)cc1", "hERG current change (%, negative = inhibition) at 10uM": -8.6}
{"molecule": "CCC(CC)C(=O)OCC(=O)Nc1cc(OC)c([N+](=O)[O-])cc1C", "hERG current change (%, negative = inhibition) at 10uM": -22.4}
{"molecule": "COC(=O)c1cc(COc2ccc3oc(C)c(C(=O)OC)c3c2)c(C)o1", "hERG current change (%, negative = inhibition) at 10uM": -5.02}
{"molecule": "Cc1ccc(/C=N/NC(=O)c2nnn(-c3nonc3N)c2C(C)C)o1", "hERG current change (%, negative = inhibition) at 10uM": -4.22}
{"molecule": "CCOc1ccccc1C(=O)Nc1ccc(-n2nncc2C(C)(C)C)cc1", "hERG current change (%, negative = inhibition) at 10uM": 10.1}
{"molecule": "CC(=O)N1CCN(Cc2nc3cc(NC(=O)c4ccccc4C)ccc3n2C)CC1", "hERG current change (%, negative = inhibition) at 10uM": 10.2}
{"molecule": "O=c1[nH]c(=O)n(Cc2ccccc2)c(O)c1C=NCCCO", "hERG current change (%, negative = inhibition) at 10uM": -5.8}
{"molecule": "O=C(N/C(=C/c1ccccc1)C(=O)N1CCOCC1)c1ccc([N+](=O)[O-])cc1", "hERG current change (%, negative = inhibition) at 10uM": -64.2}
{"molecule": "COc1ccc(C(=O)N(C)C2CCCc3ccccc32)cc1OC1CCN(C(C)C)CC1", "note": "(stereo not drawn)", "hERG current change (%, negative = inhibition) at 10uM": -39.6}
{"molecule": "Cc1cc(C(=O)Nc2sc3c(c2C#N)CCC(C(C)(C)C)C3)no1", "note": "(stereo not drawn)", "hERG current change (%, negative = inhibition) at 10uM": -4.6}
{"molecule": "COc1ccc(S(=O)(=O)N2CC(C)N(S(=O)(=O)c3ccc(OC)cc3)CC2C)cc1", "note": "(stereo not drawn)", "hERG current change (%, negative = inhibition) at 10uM": -10.4}
{"molecule": "CC(C)(C)c1cc(-c2ccco2)c(C#N)c(SCC#N)n1", "hERG current change (%, negative = inhibition) at 10uM": 16.7}
{"molecule": "O=c1cccc(-c2ccc(Br)cc2)o1", "hERG current change (%, negative = inhibition) at 10uM": 6.02}
{"molecule": "COc1ccc(S(=O)(=O)NCC2CCCN(C(=O)CCC(F)(F)F)C2)cc1", "note": "(stereo not drawn)", "hERG current change (%, negative = inhibition) at 10uM": 2.06}
{"molecule": "O=C(Nc1cccc2cccnc12)c1ccccc1Br", "hERG current change (%, negative = inhibition) at 10uM": 3.72}
{"molecule": "N#CCNC(=O)C1CC(=O)N(CCc2ccc(F)cc2)C1", "note": "(stereo not drawn)", "hERG current change (%, negative = inhibition) at 10uM": 20.9}
{"molecule": "COc1cc(N/N=C(\\C)c2ccc(N)cc2)nc(-c2ccccc2)n1", "hERG current change (%, negative = inhibition) at 10uM": -8.74}
{"molecule": "CCC(C)[C@H](NC(=O)NCc1cccnc1)C(=O)OC", "note": "(stereo partly drawn)", "hERG current change (%, negative = inhibition) at 10uM": 21.8}
{"molecule": "Cc1ccc(S(=O)(=O)N2[C@@H](c3ccc(F)cc3)C(C(=O)O)=CC[C@H]2c2ccc(C(C)C)cc2)cc1", "hERG current change (%, negative = inhibition) at 10uM": -15.1}
{"molecule": "CCOc1ccc(NC(=S)NC(=O)c2cccnc2)c([N+](=O)[O-])c1", "hERG current change (%, negative = inhibition) at 10uM": 12.2}
{"molecule": "CCC(C)NS(=O)(=O)c1ccc(OCC(=O)N2CCN(CC)CC2)cc1", "note": "(stereo not drawn)", "hERG current change (%, negative = inhibition) at 10uM": -6.96}
{"molecule": "Cc1nc(N2CCC(C)CC2)c2c(C)c(C(=O)Nc3ccc(C)c(F)c3)sc2n1", "hERG current change (%, negative = inhibition) at 10uM": 11.7}
{"molecule": "CCOC(=O)c1ccc2nc(C)c(CCC(C)=O)c(Cl)c2c1", "hERG current change (%, negative = inhibition) at 10uM": -2.83}
{"molecule": "NC(=O)Cn1cc(/C=N\\NS(=O)(=O)c2cccc([N+](=O)[O-])c2)c2ccccc21", "hERG current change (%, negative = inhibition) at 10uM": 32.4}
{"molecule": "Nc1nonc1-n1nnc(C(=O)N/N=C/c2cccc(F)c2)c1CN1CCCCCC1", "hERG current change (%, negative = inhibition) at 10uM": 20.8}
{"molecule": "Cc1cccc(CC2CC(=O)N(c3ccc([N+](=O)[O-])cc3)C2=O)c1", "note": "(stereo not drawn)", "hERG current change (%, negative = inhibition) at 10uM": -53.3}
{"molecule": "Cc1nc2c(cc1C(=O)N/N=C/c1ccc([N+](=O)[O-])cc1)c(=O)n(C)c(=O)n2C", "hERG current change (%, negative = inhibition) at 10uM": -12}
{"molecule": "CC1CN(c2ccc([N+](=O)[O-])c3cccnc23)CC(C)N1", "note": "(stereo not drawn)", "hERG current change (%, negative = inhibition) at 10uM": -33.4}
{"molecule": "CCOC(=O)CNC(=O)c1cn(C)c(=O)c2cc(OC)c(OC)cc12", "hERG current change (%, negative = inhibition) at 10uM": 13.1}
